The RNAGym collection of RNA variant scans (doi:10.1073/pnas.2313332121)
Variants at the floor of the assay are shown more often than the library holds them.

B1: TPR 5TU (parent)
chain: GGAUCUUCUCGAUCUAACAAAAAAGACAAAUCUGCCACAAAGCUUGAGAGCAUCUUCGGAUGCAGAGGCGGCAGCCUUCGGUGGCGCGAUAGCGCCAACGUUCUCAACUAUGACACGCAAAACGCGUGCUCCGUUGAAUGGAGUUUAUCAUG

Variants of: B1
Test: polymerase ribozyme fitness, log enrichment relative to wild type (log ratio); higher = more active; in vitro selection for triplet polymerase activity
How it was run: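 Each subunit of a heterodimeric triplet polymerase ribozyme was represented by a PCR-built, transcribed mutant library that underwent triplicate single-round in vitro selection with frozen incubation at −7 °C. Extended constructs were recovered by gel excision, streptavidin-bead capture and RT-PCR, and Illumina sequencing of input and output libraries kept genotypes with ≥10 input reads and ≥1 read per output. Fitness is the logarithm of genotype enrichment relative to wild-type enrichment, from inverse-variance-weighted replicate averages, with a logarithm base of 2.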

A20U A23U C57G U78G and A21C A60U G84A C95G C105U A110U cannot be ordered by “polymerase ribozyme fitness (log ratio)” value: ≤ -4.2 for the first, ≤ -4.2 for the second.

First: A20U C96G A150U
Second: A21G U53A U77G U134G U139A
The “polymerase ribozyme fitness (log ratio)” value of the first is higher: 0.47 for the first, ≤ -4.2 for the second.

A20C G50C C69U and A21U A39G G62U G67U C93U G133C cannot be ordered by “polymerase ribozyme fitness (log ratio)” value: ≤ -4.2 for the first, ≤ -4.2 for the second.

A21G C35U A64U C96U U134A and A21U A30G G59C A60U C93U C103G C125G U148A cannot be ordered by “polymerase ribozyme fitness (log ratio)” value: ≤ -4.2 for the first, ≤ -4.2 for the second.

A20U G25U C27G A41U A49G U82G and A20U G50U A73U C87A C95G A119U U146G U151G cannot be ordered by “polymerase ribozyme fitness (log ratio)” value: ≤ -4.2 for the first, ≤ -4.2 for the second.

A20G A24G C93U A115U G124U and A21C A49G G84U G100C U101G G136A A142U cannot be ordered by “polymerase ribozyme fitness (log ratio)” value: ≤ -4.2 for the first, ≤ -4.2 for the second.

A20G A26U U82G U101A C105U A120U A138U and A21C G48A U53A C75G C76A G84U G100A cannot be ordered by “polymerase ribozyme fitness (log ratio)” value: ≤ -4.2 for the first, ≤ -4.2 for the second.

A20U A23C A47C U55G G86U A91G and A20G A29U C51A A106C A113U cannot be ordered by “polymerase ribozyme fitness (log ratio)” value: ≤ -4.2 for the first, -4.2 for the second.

First: A21G A24C U53A G68C C125G
Second: A21C U53A G58A C95U U101G C116A
The “polymerase ribozyme fitness (log ratio)” value of the first is lower: ≤ -4.2 for the first, -0.162 for the second.

A21U A24U C57G C93A U102G G124A U134C and A21G A40C G80C C85U A115G G143A cannot be ordered by “polymerase ribozyme fitness (log ratio)” value: ≤ -4.2 for the first, ≤ -4.2 for the second.

Going from A20C U55G C57U C63G A66U G94C U104G to A20U C57A, the “polymerase ribozyme fitness (log ratio)” value rises from ≤ -4.2 to -1.36.

A20G G68A G94C and A20G C27A G50A A52U C93G C118U cannot be ordered by “polymerase ribozyme fitness (log ratio)” value: ≤ -4.2 for the first, ≤ -4.2 for the second.

A21U A23U U33G A89C A98U C103U and A21C C87G C96U cannot be ordered by “polymerase ribozyme fitness (log ratio)” value: ≤ -4.2 for the first, ≤ -4.2 for the second.

A20C A39U A107U G126U G141C and A21U C43A G81U G86A C96G cannot be ordered by “polymerase ribozyme fitness (log ratio)” value: ≤ -4.2 for the first, ≤ -4.2 for the second.

A21U C76G C114U and A21G U55A A73U C75A G94C C118G cannot be ordered by “polymerase ribozyme fitness (log ratio)” value: ≤ -4.2 for the first, ≤ -4.2 for the second.

Compared with A20C C93U, A20C C93G is lower in “polymerase ribozyme fitness (log ratio)” value: -1.41 for the first, -3.89 for the second.

Compared with A21G G80A C99G A119U, A21C C93G is lower in “polymerase ribozyme fitness (log ratio)” value: -0.387 for the first, -3 for the second.

A21U A41C G42U C87U C99U U104G C116A C132G and A21G G68C G83U G92A U102A A137G A142G cannot be ordered by “polymerase ribozyme fitness (log ratio)” value: ≤ -4.2 for the first, ≤ -4.2 for the second.

Going from A20G A22U C87U to A21U A28G G48A G50A G84U A97G C108G, the “polymerase ribozyme fitness (log ratio)” value falls from -2.33 to ≤ -4.2.

First: A20G A30U C32G C35G C57G C95A C114U
Second: A21C A24U A40G U144A
The “polymerase ribozyme fitness (log ratio)” value of the first is lower: ≤ -4.2 for the first, -3.76 for the second.

A20U G83A G84C U111G U134C U145A A147G U151G and A20U A24G G50C G83A A98C U109G A115G C149A cannot be ordered by “polymerase ribozyme fitness (log ratio)” value: ≤ -4.2 for the first, ≤ -4.2 for the second.

Going from A20U A29C to A20G G59A, the “polymerase ribozyme fitness (log ratio)” value rises from ≤ -4.2 to -0.551.

First: A21U C96U A113U
Second: A21U C36A C75G C85A A89G A115U
The “polymerase ribozyme fitness (log ratio)” value of the first is higher: -2.6 for the first, ≤ -4.2 for the second.

A21G C69A G94A A107G C114U G136A A147C and A21U A30G U31A C51U C95A C103G A110C G136U cannot be ordered by “polymerase ribozyme fitness (log ratio)” value: ≤ -4.2 for the first, ≤ -4.2 for the second.

A21G A39U G83A U90G G92C C108G and A20U G25C G124C cannot be ordered by “polymerase ribozyme fitness (log ratio)” value: ≤ -4.2 for the first, ≤ -4.2 for the second.

A20U U55A C72G U82A G126U U127G C132A and A21C A28G A29G A30U U55A C63U C76A cannot be ordered by “polymerase ribozyme fitness (log ratio)” value: ≤ -4.2 for the first, ≤ -4.2 for the second.

Going from A20U C43U C54U C99G G143U A147C to A21C C85U, the “polymerase ribozyme fitness (log ratio)” value rises from ≤ -4.2 to -0.369.

A20U A24C A26U U33C C35A C63U C75A and A20U G50A A89U A91G cannot be ordered by “polymerase ribozyme fitness (log ratio)” value: ≤ -4.2 for the first, ≤ -4.2 for the second.

A21U C57A A107C A122G C123U U135C U145A and A21C G48A C79G G83U G88U U102C U104A U109C C131A G136A cannot be ordered by “polymerase ribozyme fitness (log ratio)” value: ≤ -4.2 for the first, ≤ -4.2 for the second.

Going from A21U C96A A110G C116U U145G to A20U A21U, the “polymerase ribozyme fitness (log ratio)” value rises from ≤ -4.2 to -0.727.

First: A20C G83U A89U A97U
Second: A20U U55A G68U C85G C105U G124A G140C
The “polymerase ribozyme fitness (log ratio)” value of the first is higher: -2.13 for the first, ≤ -4.2 for the second.

A21C C27U G84U A107U G126C U134A and A20U A49G A66C A73U C79U A106U A107C cannot be ordered by “polymerase ribozyme fitness (log ratio)” value: ≤ -4.2 for the first, ≤ -4.2 for the second.

First: A20U A30U G92U
Second: A21G A40U U56A C132A
The “polymerase ribozyme fitness (log ratio)” value of the first is lower: ≤ -4.2 for the first, -3.09 for the second.

A21G A22C A49G U53A G83C and A20C C87G cannot be ordered by “polymerase ribozyme fitness (log ratio)” value: ≤ -4.2 for the first, ≤ -4.2 for the second.

A20U A73C G136U A137G and A21U A24U A64C U101G A110G A138C U145A cannot be ordered by “polymerase ribozyme fitness (log ratio)” value: ≤ -4.2 for the first, ≤ -4.2 for the second.

A20U A41C U90G A97C and A20U A30C G81C G86A cannot be ordered by “polymerase ribozyme fitness (log ratio)” value: ≤ -4.2 for the first, ≤ -4.2 for the second.

Going from A21C C96A G143A U146G to A20C G81C C87U, the “polymerase ribozyme fitness (log ratio)” value rises from -3.61 to -1.28.

A21G A91U C96U G100U and A20G G88A C103G C118A G141C A147C cannot be ordered by “polymerase ribozyme fitness (log ratio)” value: ≤ -4.2 for the first, ≤ -4.2 for the second.

A20C C57U A66C C116A U135G A137U and A21C C38U G68A C87A A91C C93A U101C A150C cannot be ordered by “polymerase ribozyme fitness (log ratio)” value: ≤ -4.2 for the first, ≤ -4.2 for the second.

First: A21G A37U
Second: A20C A39C G59C G84U A89C A106U
The “polymerase ribozyme fitness (log ratio)” value of the first is higher: -0.976 for the first, ≤ -4.2 for the second.

A21G A41U A60C G80A G88U A98G C125U and A21G C54A G74C G83A C85A G100A G117A U148A cannot be ordered by “polymerase ribozyme fitness (log ratio)” value: ≤ -4.2 for the first, ≤ -4.2 for the second.

A21G A28C G50U C54A G94A C114G and A20U A22C C36A U45A C75A C93G U148A cannot be ordered by “polymerase ribozyme fitness (log ratio)” value: ≤ -4.2 for the first, ≤ -4.2 for the second.
